Out of some 310,000 compounds screened, about 14,000 (4.5%) showed an effect of 50% or more. Effects have a minus sign here. The list shows a part of the results.
biological target: human ether-à-go-go-related gene (hERG) potassium channel (human, UniProt Q12809); test: primary screen, population patch clamp on CHO cells stably expressing hERG
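Further: peak tail current of the secondary pulse compared with the same well before compound.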

Sequence of human ether-à-go-go-related gene (hERG) potassium channel (Q12809 whole entry, looked up): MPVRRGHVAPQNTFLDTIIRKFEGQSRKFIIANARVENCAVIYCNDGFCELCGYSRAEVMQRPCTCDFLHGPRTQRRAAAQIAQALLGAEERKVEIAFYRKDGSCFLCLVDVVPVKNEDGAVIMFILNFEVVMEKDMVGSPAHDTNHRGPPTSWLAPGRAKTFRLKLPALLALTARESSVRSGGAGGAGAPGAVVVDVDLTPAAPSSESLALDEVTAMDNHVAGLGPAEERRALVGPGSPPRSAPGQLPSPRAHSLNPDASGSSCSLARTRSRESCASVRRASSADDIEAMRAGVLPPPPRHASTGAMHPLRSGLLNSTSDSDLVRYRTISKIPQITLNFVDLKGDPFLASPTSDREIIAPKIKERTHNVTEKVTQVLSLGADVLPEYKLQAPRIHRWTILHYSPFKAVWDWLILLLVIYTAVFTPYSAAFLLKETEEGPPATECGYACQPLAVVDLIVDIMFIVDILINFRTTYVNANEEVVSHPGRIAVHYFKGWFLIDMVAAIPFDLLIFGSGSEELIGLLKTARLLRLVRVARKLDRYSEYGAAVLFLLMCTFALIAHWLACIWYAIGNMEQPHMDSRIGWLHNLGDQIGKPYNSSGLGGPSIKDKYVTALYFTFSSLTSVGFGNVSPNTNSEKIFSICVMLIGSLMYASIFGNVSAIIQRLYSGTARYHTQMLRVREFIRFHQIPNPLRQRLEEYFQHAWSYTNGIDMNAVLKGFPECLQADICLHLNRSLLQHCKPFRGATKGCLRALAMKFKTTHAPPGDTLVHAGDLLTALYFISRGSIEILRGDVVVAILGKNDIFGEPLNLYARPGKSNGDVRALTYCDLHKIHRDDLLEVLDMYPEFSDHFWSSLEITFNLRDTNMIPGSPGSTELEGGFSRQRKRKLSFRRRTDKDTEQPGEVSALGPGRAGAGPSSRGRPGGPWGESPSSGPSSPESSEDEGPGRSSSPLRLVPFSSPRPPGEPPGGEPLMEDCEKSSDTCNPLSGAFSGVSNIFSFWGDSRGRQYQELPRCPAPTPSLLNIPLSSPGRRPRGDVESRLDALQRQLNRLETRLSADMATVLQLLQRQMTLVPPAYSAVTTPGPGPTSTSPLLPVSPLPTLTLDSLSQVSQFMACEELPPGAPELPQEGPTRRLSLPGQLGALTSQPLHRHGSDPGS

Structure (SMILES) | hERG current change (%, negative = inhibition) at 10uM
O=C(Nc1ccccc1)c1cc(-c2ccccc2Cl)no1 | -4.91%
O=C(CN1C(=O)NC(c2ccccc2)(c2ccccc2)C1=O)NC1CCCC1 | 4.95%
O=C(C1CC(=O)N(c2ccc(Cl)cc2)C1)N1CCN(Cc2ccc3c(c2)OCO3)CC1 (stereo not shown) | -67.7%
COc1ccccc1N=Nc1ccc(O)c2ncccc12 | 24.3%
Cc1cc(C)[n+](C)n1CC(O)Cn1c2ccccc2c2ccccc21.[I-] (stereo not shown) | 2.06%
CCCCn1c(CCC(=O)O)ccc1-c1cccs1 | 12.9%
COc1ccc(OC)c(NC(=O)CSc2nnc(CNC(=O)c3cc(OC)c(OC)c(OC)c3)o2)c1 | 5.46%
COc1ccc(-c2noc(CCC(=O)NCCc3ccccc3)n2)cc1 | 20.9%
COc1ccc(C2/C(=C(/O)c3ccc(C)cc3)C(=O)C(=O)N2CCCN2CCOCC2)cc1 (stereo not shown) | 34%
CCc1nc(Nc2ccc(F)cc2)c2oc3ccccc3c2n1.Cl | 10.3%
COc1ccc(C(=O)NCC(=O)N2CCN(C(=O)c3ccco3)CC2)cc1 | -13.7%
CC(=O)N1c2ccc(S(=O)(=O)NCCC(=O)Nc3ccc(F)cc3)cc2CC1C (stereo not shown) | 1.93%
O=C(CCc1c[nH]c2ccccc12)NCC1CCCO1 (stereo not shown) | 2.92%
CC(=O)N1CCc2cc(S(=O)(=O)NCCCN3CCC(C)CC3)ccc21 | 26.9%
O=C(Nc1ccc(Oc2ccc3c(c2)C(=O)N(c2ccc(O)cc2)C3=O)cc1)c1cccs1 | 5.14%
COc1ccc(/C=N/NC(=O)C2(C)NC(C)(C)Cc3ccccc32)cc1 (stereo not shown) | 1.36%
O=C(Nc1c(-c2ccccc2)nc2ccccn12)c1ccco1 | -7.68%
COC(=O)C1=C(CSCc2ccco2)NC(=O)NC1c1cc(C)ccc1C (stereo not shown) | -27.4%
O=C(NCc1ccc(F)cc1)c1cccnc1C(=O)O | 13.5%
O=C(O)c1cccc(OCc2ccccc2Cl)c1 | -8.42%
COc1ccc(Cn2c(-c3ccccc3)nc3c(c(=O)c4ccccc4n3C)c2=O)cc1 | -10.6%
Cn1c(O)c(/C=C2\C=NN=C2c2ccccc2)sc1=S | 0.793%

Structure (SMILES) | hERG current change (%, negative = inhibition) at 10uM
Brc1ccccc1Cn1c(-c2cscn2)nc2ccccc21 | 1.04%
CCOC(=O)N1CCC(NC(=O)C2CCN(C(=O)N3CC(C)Oc4ccccc43)CC2)CC1 (stereo not shown) | -2.01%
COc1ccccc1N1CCN(C(=O)c2cn(Cc3ccccc3)nc2-c2cccnc2)CC1 | -8.12%
Cc1nc2ccc(NS(=O)(=O)c3c(C)c(C)cc(C)c3C)cc2s1 | 9.52%
O=C(c1cccs1)N1CCCC(c2nc3c(nnn3Cc3ccccc3Cl)c(=O)[nH]2)C1 (stereo not shown) | -25.5%
Cc1ccc(-c2ccc(SCC(=O)N3CCc4ccccc43)nn2)cc1 | -3.57%
Cc1ccc(CNC(=O)CCCCn2c(=O)[nH]c3ccsc3c2=O)cc1 | 12.4%
CCOC(=O)C1=NN(C(C)=O)C2(CC(=O)N(c3cc(C)cc(C)c3)C2=O)C1 (stereo not shown) | -0.489%
O=C(NCc1ccco1)C1CC(=O)N(c2ccc(Cl)cc2)C1 (stereo not shown) | -6.16%
CC1CCCCN1C(=O)C(=O)c1cn(CC(=O)N2CCCC2)c2ccccc12 (stereo not shown) | 5.67%
COc1cc(/C=N/Nc2ccccc2C(F)(F)F)ccc1O | 11.4%
N#CCOC(=O)C1CCN(S(=O)(=O)c2ccc3c(c2)OCCO3)CC1 | 5.72%
COc1ccc(N2CCN(C(c3ccco3)c3sc4nc(C)nn4c3O)CC2)cc1 (stereo not shown) | -2.41%
Cl.O=C(O)c1ccc2nc(CO)[nH]c2c1 | 11.2%
COc1cc(C2NC(=O)NC(c3ccccc3)=C2C(C)=O)c(Cl)cc1OCC(=O)O (stereo not shown) | 18.1%
Cc1cc(C)cc(NC(=O)CSCc2cnn(-c3ccccc3)c2-n2cccc2)c1 | 18.3%
COc1ccc(-c2nnc(OC)c3ccccc23)cc1 | -7.99%
O=C(NC1CC1)c1ccc2snnc2c1 | 10%
O=C(COC(=O)c1ccncc1)c1ccc(Cl)c(Cl)c1 | 7.29%
CCS(=O)(=O)C1=NN2C(=N)/C(=C\c3ccc(OC(=O)c4ccco4)c(OC)c3)C(=O)N=C2S1 | -2.22%
Br.COc1ncnc2c1NC1=C(S2)C(=NCCC(=O)O)CC(C)(C)C1 | 14.6%
CCOC(=O)C1=C(CN2CCN(C(=O)c3ccco3)CC2)NC(=O)NC1c1ccc(C)cc1 (stereo not shown) | -63.2%

Structure (SMILES) | hERG current change (%, negative = inhibition) at 10uM
Cc1nc2sc(C(c3cccc(F)c3)N3CC(C)OC(C)C3)c(O)n2n1 (stereo not shown) | 2.42%
COC(=O)c1sccc1NC(=O)CN(C)NS(=O)(=O)c1ccc(Cl)cc1 | 18.7%
CCOC(=O)C1CCCN(C(=O)c2cc(S(=O)(=O)N3CCCCC3)ccc2Cl)C1 (stereo not shown) | 0.869%
O=c1c2ccccc2[nH]c(=S)n1Cc1ccc2c(c1)OCO2 | 4.77%
CC(C)c1nc2c([nH]1)c(=O)n(C)c(=O)n2C | 20.2%
CCN(CC)C(=O)COc1coc(CN2CCN(c3ccccc3)CC2)cc1=O | 13.9%
CN1C(=O)[C@H](Cc2ccc([N+](=O)[O-])cc2)NC1=S | -0.656%
Cc1[nH]c2ccccc2c1-c1nc2ccccc2[nH]1 | -6.51%
CC1=C(OC(=O)c2ccccc2)C(C)(C)C(c2ccc(Br)cc2)OC1=O (stereo not shown) | -9.55%
COc1cccc(NC(=O)Nc2nnc(-c3ccccc3SCc3ccccc3)s2)c1 | 8.22%
COc1cccc2sc(Nc3nc(-c4ccncc4)cs3)nc12 | 21.7%
CCOC(=O)N1CCN(c2nc(-c3cccc(OC)c3)cc(C(F)(F)F)n2)CC1 | 6.67%
Cc1ccc(NC(=S)Nc2cccc3ccccc23)cc1 | 22.7%
CCc1ccc(S(=O)(=O)N2CCN(Cc3ccco3)CC2)cc1 | -28.7%
CCn1nc(C)c(/C=N/NC(=O)c2c[nH]c3ccccc23)c1C | 6.1%
COC(=O)c1cnc(NNC(=O)c2ccc([N+](=O)[O-])cc2)nc1C(F)(F)F | -11.7%
Cc1ccc(Cl)cc1NC(=O)Cn1cccc1 | 7.71%
O=C(CSc1cn(CC(=O)N2CCOCC2)c2ccccc12)N1CCOCC1 | 12.8%
CC(NC(=O)CSC1=NCCS1)c1ccccc1 (stereo not shown) | 14.3%
O=C(Nc1cccc(-n2cnnn2)c1)c1cccc(Cl)c1 | -18.9%
CC1CCN(C2CCN(S(=O)(=O)c3ccc(C(F)(F)F)cc3)CC2)CC1 | -37.6%
COc1ccc(CNC(=O)C2CCN(S(C)(=O)=O)CC2)cc1 | 7.39%

Structure (SMILES) | hERG current change (%, negative = inhibition) at 10uM
COc1ccc(-n2ccc(=O)c(C(=O)O)n2)cc1 | 20.2%
NC(=O)c1ccc(C(F)(F)F)n(Cc2ccc(Cl)cc2)c1=O | 0.165%
CCOC(=O)C1=C(CS(=O)(=O)c2ccccc2)NC(=O)NC1c1ccc(OC)c(OC)c1 (stereo not shown) | 8.34%
Brc1ccc(C2=Nn3cnnc3SC2)cc1 | 13.6%
CC(C)(C)c1cc(=O)[nH]c(SCc2ccccc2Cl)n1 | 29.9%
CCOc1ccc(N(CC(=O)NC2CC3CCC2C3)S(=O)(=O)c2ccc(C)cc2)cc1 (stereo not shown) | -11%
Cc1ccc(CSCCNC(=O)c2ccc(C)cc2)cc1 | 19.1%
CCOC(=O)C1CCN(C(=O)CSc2nccc(C)n2)CC1 | 9.79%
CC(=O)c1ccc(NC(=O)CSc2nccn2CCc2ccccc2)cc1 | -0.986%
CC(C)(C)c1ccc(/C=C2\Oc3cc(O)ccc3C2=O)cc1 | 21.2%
CCOc1cc(N2CCOCC2)c(OCC)cc1NC(=O)c1oc2ccccc2c1C | 18.6%
COc1ccc(C(=O)Nc2nnc(S(=O)(=O)Cc3ccccc3)s2)cc1 | 14.8%
COC(=O)C(Cc1c[nH]c2ccccc12)NC(=O)c1cncc(Br)c1 (stereo not shown) | 1.85%
Cc1ccc(NC(=O)COc2ccc(/C=N/NC(=O)CSCc3ccccc3)cc2)cc1 | 2.45%
Cc1ccc(S(=O)(=O)Nc2ccccc2-c2ccccc2)cc1 | 5.03%
OC(COc1ccc(F)cc1)CN1CCN(CC(O)COc2ccc(F)cc2)CC1 (stereo not shown) | -71.5%
CCOc1ccc(C(=O)CCC(=O)NNC(=O)c2ccncc2)cc1 | 7.66%
CC(=O)c1cccc(NC(=O)C2CCN(S(C)(=O)=O)CC2)c1 | 9.7%
COc1ccc(CNC(=O)CCc2nnc3ccc(N4CCC5(CC4)OCCO5)nn23)cc1 | 15.1%
N#Cc1ccc(OCC(=O)OCC(=O)Nc2sccc2C(N)=O)cc1 | 11%
O=C(NN1C(=O)C2C3c4ccccc4C(c4ccccc43)C2C1=O)C1CC1 (stereo not shown) | 8.93%
C=CCn1cnc2scc(-c3ccc(C)cc3)c2c1=O | -10.4%

Source: PMC4336329 (PLoS ONE, 2015)
